Data published in PubChem BioAssay AID686978 (National Center for Advancing Translational Sciences (NCATS), 2013).
“And” between values parts separate entries of the source, which are not always exact repeats. Identical values can stand only once. In all, about 420,000 compounds went through this assay and about 64,000 (15%) were called active. This list was built around the results that the source calls inconclusive (neither active nor inactive); the mix of calls is not that of the screen. Calls come from the whole dose curve; as a rule, active = well fitted inhibition curve with a large enough effect; inconclusive = small, poorly fitted or top-dose-only effect; inactive = flat fitted curve, though single readings scatter. Where the call is inconclusive, the potency comes from a doubtful curve fit.

test: qHTS for Inhibitors of human tyrosyl-DNA phosphodiesterase 1 (TDP1): qHTS in cells in absence of CPT; settings: DT40 Tdp1-/- hTDP1 cells, no CPT, ATP luminescence, 48 h; series mostly up to 46.2 µM; note: nearly all actives have a fitted effect of over 55% in size
How it was run: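 Readout: luminescence from CellTiter-Glo after 30 min in the dark at RT. Cells: DT40 Tdp1-/- with stable hTDP1, 400/well. Exposure: compounds alone, ≥48 hr, 37 °C.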
Potency is the fitted concentration of half-maximal effect; tags give direction and shape of the fitted curve.

Row | SMILES | Potency
1 | COc1ccc(C(=O)CC2C(=O)N(C)C(=O)N(C)C2=O)cc1 | inconclusive: 25.9 µM [inhibitor, single point]
2 | CC(=O)[C@@]1(O)CC[C@H]2[C@@H]3CCC4=CC(=O)CC[C@]4(C)[C@H]3CC[C@@]21C | inconclusive: 9.2 µM [inhibitor, partial curve]
3 | COc1ccc(CN2CCCCC2c2cccnc2)cc1C (stereo not drawn) | inconclusive: 29.1 µM [inhibitor, single point]
4 | N#CC1c2ccccc2C=CN1C(=O)c1ccc(N(CCCl)CCCl)cc1 (stereo not drawn) | active: 18.4 µM
5 | CN(C(=O)Cc1ccc(Cl)c(Cl)c1)C(CN1CCCC1)c1cccc(N=C=S)c1 (stereo not drawn) | active: 3.26 µM
6 | CS(=O)(=O)N1CCN(C(=N)N[N+](=O)[O-])CC1 | inconclusive: 29.1 µM [inhibitor, single point]
7 | COc1ccc(C)cc1NC(=O)c1c(C)nn(Cc2ccccc2)c1Cl | inconclusive: 23.1 µM [inhibitor, single point]
8 | CC(C)C[C@@H](CN(N=O)[C@@H](Cc1ccccc1)CN(C)N=O)N(CCc1ccccc1)N=O | inconclusive: 16.4 µM [inhibitor, single point]
9 | CC1=NN(c2ccccc2)C(=O)C1/C=C1\C(=O)NC(=O)N(c2cc(C)cc(C)c2)C1=O (stereo not drawn) | inconclusive: 25.9 µM [inhibitor, single point]
10 | CCN1C[C@]2(COC(=O)c3ccccc3N)CC[C@H](OC)C34[C@@H]5C[C@H]6[C@H](OC)[C@@H]5[C@](O)(C[C@@H]6OC)[C@@](O)([C@H]13)[C@@H](OC)[C@@H]42 | inactive
11 | NC(Cc1ccccc1)c1csc(Nc2ccccn2)n1 (stereo not drawn) | inconclusive: 18.4 µM [inhibitor, single point]
12 | COc1ccc(N2CCN(CCc3ccncc3)CC2)cc1 | inactive
13 | COC(=O)C1=C(c2ccc(-c3ccccc3)c(F)c2)C[C@@H]2CC[C@H]1N2C(=O)NCc1cccc2ccccc12 | active: 23.1 µM
14 | O=c1c2ccccc2nc(CBr)n1-c1ccc(Cl)cc1 | inactive
15 | Cc1c(C(=O)NCc2nccs2)cnn1-c1ncc2c(n1)-c1ccccc1CC2 | active: 20.6 µM
16 | CC(C)c1ccc(NC(=O)N2C[C@H]3C[C@@H](C2)c2cccc(=O)n2C3)cc1 | inactive
17 | O=C(NCC1=C(c2ccc3ccccc3c2)C[C@@H]2CC[C@H]1N2Cc1ccco1)c1cccnc1 | inconclusive: 16.4 µM [inhibitor, single point]
18 | CN1C(=O)CN=C(c2ccc(Cl)cc2)c2cc(Cl)ccc21 | inconclusive: 29.1 µM [inhibitor, single point]
19 | COC(=O)C1=C(c2ccccc2OCc2ccccc2)C[C@@H]2CC[C@H]1N2C(=O)NCc1cccc(F)c1 | inconclusive: 20.6 µM [inhibitor, single point]
20 | COCCN1C(=NCCCOC(C)C)N[C@@H](c2ccccc2)C(C(=O)OC)=C1C | inconclusive: 23.1 µM [inhibitor, single point]
21 | COc1ccc(C(=O)C2CN(C)CC2C(=O)c2ccc(OC)cc2)cc1 (stereo not drawn) | inconclusive: 20.6 µM [inhibitor, single point]
22 | CC(=O)c1ccc(-c2ccc(Cn3c(C)nc4cc(N)c(C)nc43)cc2)cc1 | inconclusive: 29.1 µM [inhibitor, single point]
23 | CN(CCCC(=O)c1cccnc1)N=O | inactive

Row | SMILES | Potency
24 | CC(C)c1ccc(CNC(=O)c2ccc(N3CCCC3)c(NC(=O)NCc3ccccc3)c2)cc1 | active: 23.1 µM
25 | COC(=O)C1=C(c2ccccc2OCc2ccccc2)C[C@@H]2CC[C@H]1N2C(=O)NCc1ccc(F)cc1 | inconclusive: 29.1 µM [inhibitor, single point]
26 | O=[N+]([O-])c1cc([N+](=O)[O-])c2ccccc2c1 | inconclusive: 7.7 µM [inhibitor, full curve, poor fit]
27 | CC(=O)C1CCC2C3CC(O)C4CC(O)CCC4(C)C3CCC12C (stereo not drawn) | inactive
28 | COc1ccc(N2CCN(C(=O)CCCCCn3c(=S)[nH]c4ccc(N5CCOCC5)cc4c3=O)CC2)cc1 | active: 2.91 µM
29 | O=c1cc(C2CCNCC2)[nH][nH]1 | inactive
30 | CC1(C)C(=O)CC[C@@]2(C)C1=CCC1C2CC[C@]2(C)C(=O)CCC12 (stereo partly drawn) | inconclusive: 16.4 µM [inhibitor, single point]
31 | Cc1nccc2c1[nH]c1ccc(Br)cc12 | active: 23.1 µM
32 | CCn1c(C)c(C(=O)Nc2ccc(OC)cc2)c2cc(OC)ccc21 | inconclusive: 29.1 µM [inhibitor, single point]
33 | Clc1cncc(N2CCNCC2)n1 | inactive
34 | NC(=O)c1c(Br)n(C2OC(CO)C(O)C2O)c2ncnc(N)c12 (stereo not drawn) | active: 1.84 µM
35 | COc1cc2c(cc1O)CC[n+]1cc3c(OC)c(OC)ccc3cc1-2 | inconclusive: 25.9 µM [inhibitor, single point]
36 | c1ccc(-c2ccc(C(c3ccccc3)n3ccnc3)cc2)cc1 (stereo not drawn) | active: 23.7 µM and active: 23.1 µM
37 | CCn1cc(C(=O)c2cccs2)c2ccccc21 | inconclusive: 29.1 µM [inhibitor, single point]
38 | O=C(Cc1ccc(Cl)c(Cl)c1)N1CCCC[C@H]1CN1CCCC1 | active: 26.6 µM
39 | CC(=O)O[C@H]1C[C@@H]2OC3C=C(C)CCC3(C)[C@@]1(C)[C@@]21CO1 (stereo partly drawn) | active: 1.03 µM
40 | Cc1cccc(-n2c(-c3cccs3)nc3ccccc3c2=O)c1 | inconclusive: 16.4 µM [inhibitor, partial curve]
41 | COc1ccc2[nH]c3c(c2c1)CCN1C(=O)C(CC(=O)NCc2cccc(C(F)(F)F)c2)C[C@H](C(=O)N2CCCCC2)[C@@]31C (stereo partly drawn) | active: 8.2 µM
42 | CC(=O)O[C@H]1[C@H]2O[C@]23[C@@H]2CC[C@]4(O)C[C@@H](O)CC[C@]4(C)C2CC[C@]3(C)[C@H]1c1ccc(=O)oc1 (stereo partly drawn) | active: 3.66 µM
43 | COC1CC(=C(c2cccs2)c2cccs2)C[N+](C)(C)C1 (stereo not drawn) | inconclusive: 33.5 µM [inhibitor, single point]
44 | CCOc1cc2c(cc1OCC)-n1cccc1C(c1ccccc1F)NC2 (stereo not drawn) | active: 18.4 µM
45 | C[C@@H]1CC[C@@]2(NC1)O[C@H]1C[C@H]3[C@@H]4CC=C5C[C@@H](O)CC[C@]5(C)[C@H]4CC[C@]3(C)[C@H]1[C@@H]2C | inactive
46 | CCCCCCn1c(O)c(C(C)=NC)c(=O)[nH]c1=O | inactive

Row | SMILES | Potency
47 | COC(=O)[C@@]1(C)CC[C@]2(C)CC[C@@]3(C)C(=CC(=O)C4[C@@]5(C)CC[C@H](O)C(C)(C)[C@@H]5CC[C@]43C)[C@H]2C1 (stereo partly drawn) | inconclusive: 23.1 µM [inhibitor, single point]
48 | Cn1c(O)c(C(c2ccccn2)c2c(O)n(C)c(=S)n(C)c2=O)c(=O)n(C)c1=S | inactive
49 | O=C1CN=C(c2ccccc2)c2c(sc3c2CCCC3)N1 | inconclusive: 18.4 µM [inhibitor, single point]
50 | Cc1ccc(N2C(=O)NC(=O)/C(=C\c3ccc(N4CCOCC4)cc3)C2=O)cc1 | inconclusive: 25.9 µM [inhibitor, single point]
51 | CCCCn1c(O)c(C(=O)/C=C/c2c[nH]c3ccccc23)c(=O)[nH]c1=O | inconclusive: 25.9 µM [inhibitor, single point]
52 | CCCCC/C(=N/O)c1c(C)[nH]c2ccccc12 | inconclusive: 29.1 µM [inhibitor, single point]
53 | NC(=O)c1cc([N+](=O)[O-])cc([N+](=O)[O-])c1 | inconclusive: 16.4 µM [inhibitor, single point] and inconclusive: 20.6 µM [inhibitor, single point]
54 | O=c1[nH]/c(=C\c2ccc(N(CCCl)CCCl)cc2)c(=O)[nH]/c1=C\c1ccc(N(CCCl)CCCl)cc1 | inconclusive: 6.31 µM [inhibitor, full curve]
55 | COC(=O)C1=C(c2cc3ccccc3s2)C[C@@H]2CC[C@H]1N2C(=O)NCc1ccc(C(F)(F)F)cc1 | active: 18.4 µM
56 | CCN1CCN(S(=O)(=O)c2cnc(Cl)c(Br)c2)CC1 | inconclusive: 23.1 µM [inhibitor, partial curve]
57 | Cc1cc2ccccc2n1CCNC(=O)COc1ccccc1 | inconclusive: 14.6 µM [inhibitor, single point]
58 | CN1C[C@@H]2C[C@@H](c3cccn3-c3ccccn3)N3CCC[C@@]23C1=O | inactive
59 | Cc1ccnc(NC(=O)CCCc2ccc(N(CCCl)CCCl)cc2)n1 | active: 0.58 µM
60 | CC(C)Oc1ccc(CC2(CCc3ccncc3)C(=O)NC(=O)NC2=O)cc1 | inconclusive: 32.6 µM [inhibitor, partial curve, poor fit]
61 | CCOC(=O)C1CCCN(Cc2ccc(-c3ccccc3)cc2)C1 (stereo not drawn) | inconclusive: 29.1 µM [inhibitor, single point]
62 | CCC(=NCc1cc(OC)cc(OC)c1)c1c(O)n(C)c(=O)n(C)c1=O | active: 8.91 µM
63 | CCC(=O)c1ccc(OC(=O)N(C)c2ccccc2)cc1 | inactive
64 | CC(=O)c1cn(Cc2ccccc2C#N)c2ccccc12 | active: 1.03 µM
65 | CC(=O)OC1C2(CC3N4C(=O)C5(CO)SSC4(CC31O)C(=O)N5C)OC(C)C(C)(C)C2=O (stereo not drawn) | active: 0.164 µM
66 | Nc1ncnc2c1ncn2[C@@H]1O[C@@H]2COP(O)(=S)O[C@H]2[C@H]1O (stereo partly drawn) | inactive
67 | Nc1ccccc1Nc1ccc([N+](=O)[O-])cc1[N+](=O)[O-] | inconclusive: 29.1 µM [inhibitor, single point]
68 | CC(C)C(N)C(=O)OCCOCn1cnc2c(=O)[nH]c(N)nc21 (stereo not drawn) | active: 4.11 µM
